# Test results reported in the supplement of paper PMC8728848.
# This is one part of the list.
# Key:
# Assay in all cases: glycan array binding signal (z-score within array); higher = stronger binding
# Conditions in all cases: glycan notation: IUPAC condensed, linker removed
# [1] = biological target: Fuc(a1-2)Gal6S(b1-3)GlcNAc6S
# How it was run: (§1)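 From the Consortium for Functional Glycomics database, 3228 arrays were curated, keeping only those whose protein sequence was available. Binding is given as a within-array Z-score averaged across arrays sharing a protein sequence and across linkers. Negative Z-scores can be read as non-binding.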
# Fuc(a1-2)Gal6S(b1-4)Glc = biological target: Fuc(a1-2)Gal6S(b1-4)Glc
# How it was run: as §1
# [2] = biological target: Fuc(a1-2)Gal6S(b1-4)Glc6S
# How it was run: as §1
# Fuc(a1-2)[Gal(a1-3)]Gal = biological target: Fuc(a1-2)[Gal(a1-3)]Gal
# How it was run: as §1
# [3] = biological target: Fuc(a1-2)[Gal(a1-3)]Gal(b1-3)GalNAc
# How it was run: as §1
# [4] = biological target: Fuc(a1-2)[Gal(a1-3)]Gal(b1-3)GalNAc(b1-3)Gal(a1-4)Gal(b1-4)Glc
# How it was run: as §1
# [5] = biological target: Fuc(a1-2)[Gal(a1-3)]Gal(b1-3)GlcNAc
# How it was run: as §1
# [6] = biological target: Fuc(a1-2)[Gal(a1-3)]Gal(b1-3)GlcNAc(b1-2)Man(a1-3)[Fuc(a1-2)[Gal(a1-3)]Gal(b1-3)GlcNAc(b1-2)Man(a1-6)]Man(b1-4)GlcNAc(b1-4)GlcNAc
# How it was run: as §1
# [7] = biological target: Fuc(a1-2)[Gal(a1-3)]Gal(b1-3)GlcNAc(b1-2)Man(a1-3)[Fuc(a1-2)[Gal(a1-3)]Gal(b1-3)GlcNAc(b1-2)Man(a1-6)]Man(b1-4)GlcNAc(b1-4)[Fuc(a1-6)]GlcNAc
# How it was run: as §1
# [8] = biological target: Fuc(a1-2)[Gal(a1-3)]Gal(b1-3)GlcNAc(b1-3)GalNAc
# How it was run: as §1
# [9] = biological target: Fuc(a1-2)[Gal(a1-3)]Gal(b1-3)GlcNAc(b1-6)GalNAc
# How it was run: as §1
# [10] = biological target: Fuc(a1-2)[Gal(a1-3)]Gal(b1-4)Glc
# How it was run: as §1
# [11] = biological target: Fuc(a1-2)[Gal(a1-3)]Gal(b1-4)GlcNAc
# How it was run: as §1
# [12] = biological target: Fuc(a1-2)[Gal(a1-3)]Gal(b1-4)GlcNAc(b1-2)Man
# How it was run: as §1
# [13] = biological target: Fuc(a1-2)[Gal(a1-3)]Gal(b1-4)GlcNAc(b1-2)Man(a1-3)[Fuc(a1-2)[Gal(a1-3)]Gal(b1-4)GlcNAc(b1-2)Man(a1-6)]Man(b1-4)GlcNAc(b1-4)GlcNAc
# How it was run: as §1
# [14] = biological target: Fuc(a1-2)[Gal(a1-3)]Gal(b1-4)GlcNAc(b1-2)Man(a1-3)[Fuc(a1-2)[Gal(a1-3)]Gal(b1-4)GlcNAc(b1-2)Man(a1-6)]Man(b1-4)GlcNAc(b1-4)[Fuc(a1-6)]GlcNAc
# How it was run: as §1
# [15] = biological target: Fuc(a1-2)[Gal(a1-3)]Gal(b1-4)GlcNAc(b1-3)GalNAc
# How it was run: as §1
# [16] = biological target: Fuc(a1-2)[Gal(a1-3)]Gal(b1-4)GlcNAc(b1-3)[Fuc(a1-2)[Gal(a1-3)]Gal(b1-4)GlcNAc(b1-6)]GalNAc
# How it was run: as §1
# [17] = biological target: Fuc(a1-2)[Gal(a1-3)]Gal(b1-4)GlcNAc(b1-6)GalNAc
# How it was run: as §1
# [18] = biological target: Fuc(a1-2)[Gal(a1-3)]Gal(b1-4)[Fuc(a1-3)]Glc
# How it was run: as §1
# [19] = biological target: Fuc(a1-2)[Gal(a1-3)]Gal(b1-4)[Fuc(a1-3)]GlcNAc
# How it was run: as §1
# [20] = biological target: Fuc(a1-2)[Gal(a1-3)]Gal(b1-4)[Fuc(a1-3)]GlcNAc(b1-3)GalNAc
# How it was run: as §1
# [21] = biological target: Fuc(a1-2)[Gal(a1-4)]Gal(b1-4)GlcNAc
# How it was run: as §1
# [22] = biological target: Fuc(a1-2)[GalNAc(a1-3)]Gal
# How it was run: as §1
# [23] = biological target: Fuc(a1-2)[GalNAc(a1-3)]Gal(b1-3)GalNAc(a1-3)[Fuc(a1-2)]Gal(b1-4)GlcNAc
# How it was run: as §1
# [24] = biological target: Fuc(a1-2)[GalNAc(a1-3)]Gal(b1-3)GalNAc(b1-3)Gal(a1-4)Gal(b1-4)Glc
# How it was run: as §1
# [25] = biological target: Fuc(a1-2)[GalNAc(a1-3)]Gal(b1-3)GlcNAc
# How it was run: as §1
# [26] = biological target: Fuc(a1-2)[GalNAc(a1-3)]Gal(b1-3)GlcNAc(b1-2)Man(a1-3)[Fuc(a1-2)[GalNAc(a1-3)]Gal(b1-3)GlcNAc(b1-2)Man(a1-6)]Man(b1-4)GlcNAc(b1-4)GlcNAc
# How it was run: as §1
# [27] = biological target: Fuc(a1-2)[GalNAc(a1-3)]Gal(b1-3)GlcNAc(b1-2)Man(a1-3)[Fuc(a1-2)[GalNAc(a1-3)]Gal(b1-3)GlcNAc(b1-2)Man(a1-6)]Man(b1-4)GlcNAc(b1-4)[Fuc(a1-6)]GlcNAc
# How it was run: as §1
# [28] = biological target: Fuc(a1-2)[GalNAc(a1-3)]Gal(b1-3)GlcNAc(b1-3)GalNAc
# How it was run: as §1
# [29] = biological target: Fuc(a1-2)[GalNAc(a1-3)]Gal(b1-3)GlcNAc(b1-6)GalNAc
# How it was run: as §1
# [30] = biological target: Fuc(a1-2)[GalNAc(a1-3)]Gal(b1-4)Glc
# How it was run: as §1
# [31] = biological target: Fuc(a1-2)[GalNAc(a1-3)]Gal(b1-4)GlcNAc
# How it was run: as §1
# [32] = biological target: Fuc(a1-2)[GalNAc(a1-3)]Gal(b1-4)GlcNAc(b1-2)Man
# How it was run: as §1
# [33] = biological target: Fuc(a1-2)[GalNAc(a1-3)]Gal(b1-4)GlcNAc(b1-2)Man(a1-3)[Fuc(a1-2)[GalNAc(a1-3)]Gal(b1-4)GlcNAc(b1-2)Man(a1-6)]Man(b1-4)GlcNAc(b1-4)GlcNAc
# How it was run: as §1
# [34] = biological target: Fuc(a1-2)[GalNAc(a1-3)]Gal(b1-4)GlcNAc(b1-2)Man(a1-3)[Fuc(a1-2)[GalNAc(a1-3)]Gal(b1-4)GlcNAc(b1-2)Man(a1-6)]Man(b1-4)GlcNAc(b1-4)[Fuc(a1-6)]GlcNAc
# How it was run: as §1
# [35] = biological target: Fuc(a1-2)[GalNAc(a1-3)]Gal(b1-4)GlcNAc(b1-3)Gal(b1-4)GlcNAc
# How it was run: as §1
# [36] = biological target: Fuc(a1-2)[GalNAc(a1-3)]Gal(b1-4)GlcNAc(b1-3)Gal(b1-4)GlcNAc(b1-3)Gal(b1-4)GlcNAc
# How it was run: as §1
# [37] = biological target: Fuc(a1-2)[GalNAc(a1-3)]Gal(b1-4)GlcNAc(b1-3)GalNAc
# How it was run: as §1
# [38] = biological target: Fuc(a1-2)[GalNAc(a1-3)]Gal(b1-4)GlcNAc(b1-3)[Fuc(a1-2)[GalNAc(a1-3)]Gal(b1-4)GlcNAc(b1-6)]GalNAc
# How it was run: as §1
# [39] = biological target: Fuc(a1-2)[GalNAc(a1-3)]Gal(b1-4)GlcNAc(b1-6)GalNAc
# How it was run: as §1
# [40] = biological target: Fuc(a1-2)[GalNAc(a1-3)]Gal(b1-4)[Fuc(a1-3)]GlcNAc
# How it was run: as §1
# [41] = biological target: Fuc(a1-2)[GalNAc(a1-3)]Gal(b1-4)[Fuc(a1-3)]GlcNAc(b1-3)GalNAc
# How it was run: as §1
# [42] = biological target: Fuc(a1-2)[GalNAc(a1-4)]Gal(b1-4)GlcNAc
# How it was run: as §1
# [43] = biological target: Fuc(a1-2)[GalNAc(b1-3)]Gal
# How it was run: as §1
binder,measurement,setting,value
PX14343H-pdi-506-26-506 (Parabacteroides distasonis) (protein) QPTGTMTTDSKLTSKESALALTNSAYLKNTVFNKMTPGWGCNTILLLEYMTGKATSENSQSNYKDFQDLLVSDRSLYIEDWWQDCYAGIANCNLALQKLGEFENLDASLVNGYMAEVKFMRALYYFYLVRIFGDVPKITTVQSELGELQVSRAPVKEIYDEIIIPDLLEAEQSDLAFSDHTGRVSMGAVKALLADVYLTYAGYPLQGGKSYYAESAKRSLEVIKSNEYTLFTDYESLRLPSQNNKGEFIYQVQFSLNKRHNESVRIFLPSRSGISAYDLEYGSLIPTKEFVESFEKGDKRTEEKQYFFTNYKGHPSKFSPGAAELEFMDLNGYYIYKFFDQVAVDNTAKSDLNWSVYRYTDVLLMYAEAQVNADGTPNQQSIDIVNQIRGRAGLAPFKQTNASAFLEEVWDQRYFDLCYENKMWFDMLRTRKIRDDKSGEYVDFIGYKTNWGKVYTETQLLFPIPLSERQANPNLTQNQGY,glycan array binding signal (z-score),[1],-0.221
same,glycan array binding signal (z-score),Fuc(a1-2)Gal6S(b1-4)Glc,-0.402
same,glycan array binding signal (z-score),[2],-0.097
same,glycan array binding signal (z-score),Fuc(a1-2)[Gal(a1-3)]Gal,-0.437
same,glycan array binding signal (z-score),[3],-0.325
same,glycan array binding signal (z-score),[4],-0.484
same,glycan array binding signal (z-score),[5],-0.403
same,glycan array binding signal (z-score),[6],-0.252
same,glycan array binding signal (z-score),[7],-0.385
same,glycan array binding signal (z-score),[8],-0.35
same,glycan array binding signal (z-score),[9],-0.255
same,glycan array binding signal (z-score),[10],-0.064
same,glycan array binding signal (z-score),[11],-0.367
same,glycan array binding signal (z-score),[12],-0.394
same,glycan array binding signal (z-score),[13],1.1
same,glycan array binding signal (z-score),[14],0.417
same,glycan array binding signal (z-score),[15],0.013
same,glycan array binding signal (z-score),[16],-0.177
same,glycan array binding signal (z-score),[17],-0.381
same,glycan array binding signal (z-score),[18],-0.009
same,glycan array binding signal (z-score),[19],0.01
same,glycan array binding signal (z-score),[20],1
same,glycan array binding signal (z-score),[21],-0.086
same,glycan array binding signal (z-score),[22],-0.165
same,glycan array binding signal (z-score),[23],0.211
same,glycan array binding signal (z-score),[24],-0.327
same,glycan array binding signal (z-score),[25],-0.248
same,glycan array binding signal (z-score),[26],-0.219
same,glycan array binding signal (z-score),[27],-0.391
same,glycan array binding signal (z-score),[28],-0.257
same,glycan array binding signal (z-score),[29],-0.137
same,glycan array binding signal (z-score),[30],-0.474
same,glycan array binding signal (z-score),[31],-0.526
same,glycan array binding signal (z-score),[32],-0.523
same,glycan array binding signal (z-score),[33],4.7
same,glycan array binding signal (z-score),[34],-0.287
same,glycan array binding signal (z-score),[35],-0.435
same,glycan array binding signal (z-score),[36],-0.352
same,glycan array binding signal (z-score),[37],-0.4
same,glycan array binding signal (z-score),[38],0
same,glycan array binding signal (z-score),[39],-0.405
same,glycan array binding signal (z-score),[40],-0.269
same,glycan array binding signal (z-score),[41],0.196
same,glycan array binding signal (z-score),[42],1.09
same,glycan array binding signal (z-score),[43],1.11
